Data from paper PMC6576747.
Changes are numbered by the printed parent chain. No constants are given. Whether binding was seen depends on the method and setting. For part of these data: Binding seen in cells or lysates may run through a third protein. Some results given as binding are weak or reduced against the parent protein; the word gives no strength. Where a sequence is shown, tags or fusion partners need not be part of it. Blank lines part the entries; values can stand above or below the binder they belong to.

What was measured:
[1] = target: T1, Epe1 (yeast two-hybrid fusion) (S. pombe) (UniProt O94603); test: two-hybrid; Matchmaker GAL4 Two-Hybrid System 3, host AH109, HIS3 reporter, serial dilution on -TLH, 15 mM 3-AT; both orientations (bait-prey exchange)
T1 sequence: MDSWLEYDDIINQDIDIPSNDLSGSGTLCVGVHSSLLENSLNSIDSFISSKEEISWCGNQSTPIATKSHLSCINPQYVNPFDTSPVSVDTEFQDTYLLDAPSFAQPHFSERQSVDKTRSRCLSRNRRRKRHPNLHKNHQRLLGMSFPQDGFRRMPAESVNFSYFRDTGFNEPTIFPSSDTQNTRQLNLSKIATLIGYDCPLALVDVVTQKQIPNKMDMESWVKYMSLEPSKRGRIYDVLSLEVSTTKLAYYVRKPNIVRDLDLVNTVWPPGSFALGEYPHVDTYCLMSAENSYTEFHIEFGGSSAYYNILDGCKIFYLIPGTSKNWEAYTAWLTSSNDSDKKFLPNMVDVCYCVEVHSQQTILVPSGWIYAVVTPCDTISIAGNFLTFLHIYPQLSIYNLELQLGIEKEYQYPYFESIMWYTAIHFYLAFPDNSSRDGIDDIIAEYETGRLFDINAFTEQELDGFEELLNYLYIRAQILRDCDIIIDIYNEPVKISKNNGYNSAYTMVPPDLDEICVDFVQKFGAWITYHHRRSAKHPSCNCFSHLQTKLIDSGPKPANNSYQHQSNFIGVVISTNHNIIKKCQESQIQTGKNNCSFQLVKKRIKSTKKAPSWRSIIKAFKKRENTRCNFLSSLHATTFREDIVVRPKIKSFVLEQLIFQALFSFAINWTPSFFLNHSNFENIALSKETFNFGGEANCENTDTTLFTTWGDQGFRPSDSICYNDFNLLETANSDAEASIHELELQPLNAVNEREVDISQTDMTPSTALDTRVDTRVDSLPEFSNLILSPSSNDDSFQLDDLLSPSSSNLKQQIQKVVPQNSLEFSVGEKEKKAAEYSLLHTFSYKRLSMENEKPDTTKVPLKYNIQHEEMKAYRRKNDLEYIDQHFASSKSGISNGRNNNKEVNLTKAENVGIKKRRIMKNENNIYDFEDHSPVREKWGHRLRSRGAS

[2] = target: T2, 3FLAG-Epe1H297A (S. pombe), O94603; test: co-IP; anti-FLAG (M2) on Dynabeads, S. pombe lysate, 1 x HC buffer with 250 mM KCl and 1 mM DTT, 4 h at 4°C; Swi6 detected by Western blotting; conditions: remark: other sources report otherwise
T2 chain: T1 sequence with H297A

3FLAG-Epe1ΔN (S. pombe) = target: T3, 3FLAG-Epe1ΔN (S. pombe) (UniProt O94603); test: as above
T3 sequence: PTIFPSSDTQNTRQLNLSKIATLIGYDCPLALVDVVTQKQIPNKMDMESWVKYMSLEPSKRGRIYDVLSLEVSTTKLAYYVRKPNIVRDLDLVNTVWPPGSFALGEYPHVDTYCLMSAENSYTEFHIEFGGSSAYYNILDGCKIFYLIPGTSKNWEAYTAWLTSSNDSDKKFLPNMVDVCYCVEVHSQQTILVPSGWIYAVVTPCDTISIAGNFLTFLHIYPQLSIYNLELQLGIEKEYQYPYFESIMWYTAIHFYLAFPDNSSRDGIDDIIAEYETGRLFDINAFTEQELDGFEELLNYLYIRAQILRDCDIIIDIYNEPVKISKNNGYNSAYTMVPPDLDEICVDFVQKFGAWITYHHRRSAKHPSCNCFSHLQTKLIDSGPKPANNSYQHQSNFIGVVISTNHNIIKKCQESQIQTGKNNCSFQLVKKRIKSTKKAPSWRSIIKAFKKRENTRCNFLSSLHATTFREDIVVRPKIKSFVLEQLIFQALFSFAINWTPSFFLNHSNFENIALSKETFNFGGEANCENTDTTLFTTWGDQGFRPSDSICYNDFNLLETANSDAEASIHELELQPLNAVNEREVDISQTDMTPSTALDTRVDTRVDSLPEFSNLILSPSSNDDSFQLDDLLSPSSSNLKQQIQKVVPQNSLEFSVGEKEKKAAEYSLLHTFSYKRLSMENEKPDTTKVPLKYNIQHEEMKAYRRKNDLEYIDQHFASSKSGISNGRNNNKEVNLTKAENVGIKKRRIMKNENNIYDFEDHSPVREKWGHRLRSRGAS

[3] = target: T4, 3FLAG-Epe1 (N-terminal tagged wild-type Epe1) (S. pombe) (UniProt O94603); test: as above
T4 sequence: T1 sequence

[4] = target: T5, Epe1H297A (yeast two-hybrid fusion) (S. pombe), O94603; test: two-hybrid; Matchmaker GAL4 Two-Hybrid System 3, host AH109, HIS3 reporter, serial dilution on -TLH, 15 mM 3-AT; both orientations (bait-prey exchange); conditions: remark: other sources report otherwise
T5 chain: T1 sequence with H297A

[5] = target: T6, Swi6 (yeast two-hybrid fusion) (S. pombe), P40381; test: as above; conditions: remark: other sources report otherwise
T6 chain: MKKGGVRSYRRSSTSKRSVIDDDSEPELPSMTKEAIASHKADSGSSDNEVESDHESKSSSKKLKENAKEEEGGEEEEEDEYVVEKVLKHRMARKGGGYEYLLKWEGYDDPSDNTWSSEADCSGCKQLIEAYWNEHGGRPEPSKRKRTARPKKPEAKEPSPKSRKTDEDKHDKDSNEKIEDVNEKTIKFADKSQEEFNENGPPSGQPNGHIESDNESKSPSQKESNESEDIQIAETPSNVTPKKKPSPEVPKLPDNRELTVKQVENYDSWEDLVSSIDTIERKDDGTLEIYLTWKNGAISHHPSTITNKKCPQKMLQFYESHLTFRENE

- binding [1]: binds
B1: Swi6 (yeast two-hybrid fusion) (protein, UniProt P40381 1-328)
chain: T6 chain

- binding [2]: binds
B2: Swi6, P40381 1-328 (protein)
chain: T6 chain

- binding (3FLAG-Epe1ΔN (S. pombe)): binds
- binding [3]: binds
B3: Swi6 (protein, UniProt P40381 1-328)
chain: T6 chain

- binding [4]: binds
B4: Swi6 (yeast two-hybrid fusion), P40381 1-328 (protein)
chain: T6 chain

- binding [5]: binds
B5: Epe1H297A (yeast two-hybrid fusion), O94603 1-948 (protein)
chain: T1 sequence with H297A
